From ChEMBL document CHEMBL1157539, “Thousands of chemical starting points for antimalarial lead identification” (Nature, 2010) come the findings set out here.

Over roughly 13,000 compounds, “IFI” has its median near 4; the highest 2% begin near 17. Some of the results follow.

A short description of this test: GSK_TCMDC: Inhibition Frequency Index (IFI). The number of non-kinase HTS assays where a compound showed > 50 % inhibition, expressed as a percentage of the number of such assays in which the compound was tested (-0 is zero). Type of test: functional.
`CS(=O)(=O)c1ccc(-c2cncc(Nc3cccc([N+](=O)[O-])c3)c2)cc1` displayed an IFI of 3.05%. As to `COc1ccc(Nc2nccc(N3CCC(NC(=O)c4cccc(NC(C)=O)c4)C3)n2)cc1` (stereo not drawn), the IFI stood at 3.08%. For the compound `CCc1c(CCNCCCCCCNCCc2ccc(OC)c(OC)c2C)ccc(OC)c1OC`, the IFI worked out at 3.6%. On to `CN1CCN(CCCCCCNc2c3ccccc3nc3ccccc23)CC1`, for which the IFI came to 3.52%. Turning to `Nc1nccc2ccc(-c3cccnc3)cc12`, the IFI is 4.85%. In turn, `CNCCNCc1ccc(-c2ccc(-c3nc4cc(C(F)(F)F)ccc4[nH]3)s2)cc1` displayed an IFI of 8.82%. In the case of `CCc1ccc(Cc2cnc3nc(N)nc(N)c3c2C)cc1CC` it was 1.64%; in that of `COc1ccccc1Cc1nc2ccccc2nc1SCC(=O)Nc1cccc(C(F)(F)F)c1`, 2.17%. In turn, `CCOc1ccc2c(=NN=Cc3c4ccccc4cc4ccccc34)cc(C)[nH]c2c1` yielded an IFI of 1.46%. For `Oc1cccc2c1CC(NCc1ccccc1)CC2` (stereo not drawn), the IFI is -0%. In the case of `CCCN(CCC)CCOc1ccc(C(O)(C#CC(O)(c2ccc(OCCN(CCC)CCC)cc2)c2cccc(Cl)c2)c2cccc(Cl)c2)cc1` (stereo not drawn) it was 8.15%. In the case of `CCCCCCCOc1ccc(NC(=O)Nc2ccc(Cn3ncc(N4CCCNCC4)c(Cl)c3=O)cc2)cc1` it was 19.1%; in that of `O=C(Nc1cccc(C(F)(F)F)c1)NC1CCN(c2ccnc3ccccc23)C1` (stereo not drawn), 1.56%. To `CC(C)(C)CCOC(=O)N1CCc2c(cc(O)c(O)c2Cl)C(c2ccc(O)cc2)C1` (stereo not drawn) belongs 4.17%. Compound `CN(C)CCOc1ccc(-c2cc(-c3ccc(Cl)c(O)c3)c(-c3ccnc(N)n3)o2)cc1` returned an IFI of 6.04%. Consider `CC(C)[C@H](NC(=O)c1ccc(O)c(-c2ccc(Cl)c(Cl)c2)c1)C(=O)NCCN1CCOCC1`, for which the IFI was -0%. To `COc1ccc2nccc([C@@H](O)CN3CCC(NC(=O)/C=C/c4cc(F)cc(Br)c4)CC3)c2c1` belongs 3.65%; to `COc1ccc2[nH]ccc(=NN=Cc3cccc(F)c3)c2c1`, 5.26%; to `O=C(/C=C/c1ccc(Cl)c(Cl)c1)NCCCCCN1CCC(NC(=O)Nc2cc(F)cc(F)c2)CC1`, 7.95%. In the case of `Cc1cccc2nc(-c3ccc(-c4cccc(CNCC5CCCO5)c4)cc3)[nH]c12` (stereo not drawn) it was 2.97%; in that of `C[C@H](Cc1ccc(OCCNC[C@H](O)c2cccc(Cl)c2)cc1)NC[C@H](O)c1ccc(Cl)c(Cl)c1`, 11.4%. In the case of `Cc1nc(-c2ccc(C(F)(F)F)cn2)sc1C(=O)N1CCc2cc3nccc(N4CCN5CCC[C@H]5C4)c3cc21` it was 5.88%; in that of `Oc1cc(Nc2ccnc3cc(-c4cccc(CN5CCOCC5)c4)ccc23)c(F)cc1Cl`, 5.22%. In turn, `COc1ccc(-c2cnc3[nH]cc(-c4ccc(C(=O)O)c(C)c4)c3c2)cn1` yielded an IFI of 6.73%. In the case of `CCCCCCN(CCCCCC)CCCCNc1c2ccc(Cl)cc2nc2ccc(OC)cc12`, the IFI worked out at 10.6%. Turning to `CC(=O)Nc1ccc(CN2CCC(NC(=O)c3cc(-c4ccc(N(C)C)cc4)cs3)C2)cc1` (stereo not drawn), the IFI is 3.64%. Take `CCc1cn2c3c(cc(C(=O)N[C@@H](Cc4cccc(Cl)c4)[C@H](O)CNC4CCCCC4)cc13)N(C)S(=O)(=O)CC2`: the IFI worked out at 5.51%. `CCc1cn2c3c(cc(C(=O)N[C@@H](Cc4cc(F)cc(F)c4)[C@H](O)CNC4CCCCC4)cc13)N(C)S(=O)(=O)CC2` returned an IFI of 5.07%.

As to `N#Cc1ccc2c(c1)CCN(CCC1CCC(NC(=O)c3cccc(-c4ccc(F)cc4)c3)CC1)CC2` (stereo not drawn), the IFI stood at 2.22%. In the case of `O=C(NC1CCN(c2ccnc3ccccc23)C1)c1ccc(OC(F)(F)F)cc1` (stereo not drawn) it was 3.13%; in that of `COc1ccc2c(c1)CC(NCc1ccc(-c3ccc4nc[nH]c4c3)cc1)C2` (stereo not drawn), -0%. In the case of `CC(C)NCc1ccc(-c2cccc(NC(=O)c3cccc(Cl)c3)c2)cc1` it was 3.88%.

Consider `Cc1ccc(C)c(Cn2c(N3CCC(C(=O)NCc4cccs4)CC3)nc3ccccc32)c1`, for which the IFI worked out at 5.94%. In the case of `CC(C)NC[C@@H](O)[C@H](Cc1ccccc1)NC(=O)c1cc2c3c(c1)c(C(C)C)cn3CCS(=O)(=O)N2C` it was 1.47%; in that of `O=C(Cc1ccccc1)NC(c1ccc(Cl)cc1)c1ccc2cccnc2c1O` (stereo not drawn), 6.06%. For `CC(C)CCN1CCCN(Cc2cccc(NC(=O)c3cc4ccccc4s3)c2)CC1`, the IFI turned out to be 4.62%.

In the case of `COc1ccccc1Nc1nc(NC2CCN(C)CC2)cc(-c2cccc(C(F)(F)F)c2)n1`, the IFI is 15.5%. To `CCCCCN1CCC(NS(=O)(=O)c2cccc(C(=O)Nc3ccc(Cl)cc3)c2)CC1` belongs 6.8%. On to `Fc1ccc(Nc2ccnc3cc(-c4cccc(CNCCN5CCOCC5)c4)ccc23)c(Cl)c1`, for which the IFI stood at 4.32%. As to `CS(=O)(=O)NCCCNCc1cccc(-c2ccc(-c3nc4cc(C(F)(F)F)ccc4[nH]3)s2)c1`, the IFI was found to be 4.95%. Compound `CC(C)OCCCNC(=O)c1nc(-c2cccc(C(F)(F)F)c2)sc1C(C)C` gave an IFI of 2.63%. For the compound `CC(C)(C)c1ccc(CNC(=O)c2cc(CNC3CCNC3)ccc2O)cc1` (stereo not drawn), the IFI turned out to be 1.46%.

`COCCNCc1ccc(-c2ccc(CNc3ccc4ncccc4c3)cc2)cc1` came in with an IFI of 10.1%.

`CCc1cc2c(N)nc(N)nc2nc1-c1ccccc1` gave an IFI of 0%. To `O=C(Nc1cccc(CN2CCN(C(=O)c3cccc(F)c3)CC2)c1)c1cccs1` belongs 3.05%; to `CCn1ncc2c(NC3CCOCC3)c(CNC(=O)c3ccnn3C)c(C)nc21`, 0%. In the case of `c1cncc(Oc2ccc(Nc3ccnc4cc(-c5cccc(CN6CCCCC6)c5)ccc34)cc2)c1` it was 9.56%; in that of `CCN(CC)CC(O)CNc1c2ccc([N+](=O)[O-])cc2nc2cc(OC)c(OC)cc12` (stereo not drawn), 5.71%; in that of `Cc1cc(OCC2CCN(c3ncc(C(=O)Nc4ccccc4)cc3Cl)CC2)ccc1F`, 4.17%.

With `CCCCCCN1CCCN(Cc2ccc(C(=O)Nc3cccc(CC)c3)cc2)CC1`, the IFI amounted to 7.87%.

As to `CCOc1ccc(C(=O)Nc2cc(Br)c3c(c2)CNCC3)cc1C(F)(F)F`, the IFI was 8.51%.

In the case of `CC1=NN(c2ccc(C)c(C)c2)C(=O)C1=NNc1cccc(-c2cccc(NC(=O)OC(C)(C)C)c2)c1O`, the IFI turned out to be 4.9%.

`CC(NC(C)c1cccc(Cl)c1)C(=O)Nc1cc(C(F)(F)F)ccc1N1CCOCC1` (stereo not drawn) displayed an IFI of 1.82%. In the case of `CN1CCC(NCc2cccc(-c3ccc(S(=O)(=O)NCCc4ccccn4)cc3)c2)CC1` it was 1.75%. Turning to `CCC[C@@H]([C@@H](CC(C)C)C(=O)N[C@@H](CCCCNC(=O)c1cccc(OC)c1)C(=O)Nc1nccs1)N(O)C=O`, the IFI amounted to 2.13%.

On to `COc1csc2cc(Br)ccc12`, for which the IFI amounted to 1.46%. `Cc1cccc2nc(-c3ccc(-c4ccc(NC(=O)Nc5ccc(Cl)cc5)cc4)cc3)[nH]c12` gave an IFI of 4%. In the case of `O=c1cc(NCCCN(Cc2cc3c(Cl)cc(Cl)cc3[nH]2)Cc2cc3c(Cl)cc(Cl)cc3[nH]2)[nH]c2ccccc12` it was 6.72%.
